# Source: a collection of fitness landscapes (doi:10.1016/j.celrep.2020.107928)
# Whole data set: some 81,000 sequences, median “one-hybrid fitness for binding NBS DNA” near -0.1, cut for the highest 2% near 0.36. This is one part of the list.
# B1: Caulobacter ParB omega fusion; a variant is named by its letters at X, in order, B8GW30 (parent)
# chain: MESVVVGEPGMSEGRRGLGRGLSALLGEVDAAPAQAPGEQLGGSREAPIEILQRNPDQPRRTFREEDLEDLSNSIREKGVLQPILVRPSPDTAGEYQIVAGERAWRAAQRAGLKTVPIMVRELDDLAVLEIGIIENVQRADLNVLEEALSYKVLMEKFERTQENIAQTIGKSXSHVANXMRLLXLPDEVQSYLVSGELTAXHARAIAAAADPVALAKQIIEGGLSVRETEALARKAPNLSAGKSKGGRPPRVKDTDTQALESDLSSVLGLDVSIDHRGSTGTLTITYATLEQLDDLCNRLTRGI
# Variants of: B1
# Experiment: one-hybrid fitness for binding NBS DNA (the Noc-binding site; scaled: cognate 1, non-cognate 0); higher = stronger binding
# Details: with NBS DNA site
# How it was run: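 Selection: bacterial one-hybrid in E. coli USO, HIS3 reporter with the site 19 bp from the promoter, 48 hours at 37°C on M9-minus-histidine plus 0.1 mM IPTG and 5 mM 3-AT. Libraries were Caulobacter ParB with four randomised specificity codons, sequenced on Illumina before and after selection. Fitness is the rescaled log change in variant-to-wild-type read ratio, anchored to the cognate and non-cognate sites.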
row,Variant,one-hybrid fitness for binding NBS DNA
1,AALA,≤ 0.2
2,CWTE,≤ 0.2
3,GALG,≤ 0.2
4,RAEM,≤ 0.2
5,QESG,≤ 0.2
6,PAED,≤ 0.2
7,HWQT,≤ 0.2
8,PWDS,≤ 0.2
9,LDHT,≤ 0.2
10,FALY,≤ 0.2
11,NIIG,≤ 0.2
12,NWES,≤ 0.2
13,PLGF,≤ 0.2
14,SEGW,≤ 0.2
15,HDTG,≤ 0.2
16,DIYS,≤ 0.2
17,KSCK,≤ 0.2
18,YPYS,≤ 0.2
19,EMRQ,≤ 0.2
20,VWKD,≤ 0.2
21,NFNV,≤ 0.2
22,RYRI,≤ 0.2
23,NYNI,≤ 0.2
24,FKHI,≤ 0.2

row,Variant,one-hybrid fitness for binding NBS DNA
1,PTLR,≤ 0.2
2,RSGR,0.459
3,STWG,≤ 0.2
4,IKTT,≤ 0.2
5,MWSC,≤ 0.2
6,FNLI,≤ 0.2
7,HRLC,≤ 0.2
8,YDKC,≤ 0.2
9,ICCL,≤ 0.2
10,GWWL,≤ 0.2
11,CEFG,≤ 0.2
12,LFLY,≤ 0.2
13,EPRN,≤ 0.2
14,RMKC,0.4
15,QDAT,≤ 0.2
16,NHVC,≤ 0.2
17,GCLG,≤ 0.2
18,HLNV,≤ 0.2
19,IHHG,≤ 0.2
20,RALK,≤ 0.2
21,QPEC,≤ 0.2
22,HLDM,≤ 0.2
23,FRGL,≤ 0.2
24,CYGT,≤ 0.2

row,Variant,one-hybrid fitness for binding NBS DNA
1,RQDM,≤ 0.2
2,PTKC,≤ 0.2
3,AFDT,≤ 0.2
4,RWAT,≤ 0.2
5,DWDG,≤ 0.2
6,DYKY,≤ 0.2
7,ARNG,≤ 0.2
8,PPCI,≤ 0.2
9,SCMR,≤ 0.2
10,NETT,≤ 0.2
11,ALTP,≤ 0.2
12,FITS,≤ 0.2
13,TECR,≤ 0.2
14,ALTK,≤ 0.2
15,RLMF,≤ 0.2
16,NCMT,≤ 0.2
17,GDSS,≤ 0.2
18,HPPF,≤ 0.2
19,YEWS,≤ 0.2
20,MGTI,≤ 0.2
21,LPIL,≤ 0.2
22,VAWR,≤ 0.2
23,SWIV,≤ 0.2
24,TMAP,≤ 0.2

row,Variant,one-hybrid fitness for binding NBS DNA
1,LKSC,≤ 0.2
2,TRFM,≤ 0.2
3,GGGG,≤ 0.2
4,ATDV,≤ 0.2
5,ATSE,≤ 0.2
6,DCCS,≤ 0.2
7,FADS,≤ 0.2
8,TKRR,0.236
9,GLYV,≤ 0.2
10,MEKT,≤ 0.2
11,YLTV,≤ 0.2
12,FHRM,≤ 0.2
13,RLKE,≤ 0.2
14,DRFA,≤ 0.2
15,WQAH,≤ 0.2
16,PLTA,≤ 0.2
17,QFIW,≤ 0.2
18,APRM,≤ 0.2
19,HYTS,≤ 0.2
20,KIET,≤ 0.2
21,YWTY,≤ 0.2
22,DLSY,≤ 0.2
23,ARLD,≤ 0.2
24,VEPE,≤ 0.2

row,Variant,one-hybrid fitness for binding NBS DNA
1,LCTM,≤ 0.2
2,MESE,≤ 0.2
3,SHKN,≤ 0.2
4,VTND,≤ 0.2
5,CSAT,≤ 0.2
6,QYMS,0.314
7,DTCT,≤ 0.2
8,PIWS,≤ 0.2
9,YTQC,≤ 0.2
10,CCTA,≤ 0.2
11,QLKM,0.318
12,HWWG,≤ 0.2
13,AFEL,≤ 0.2
14,PLWT,≤ 0.2
15,PCND,≤ 0.2
16,MRRT,0.275
17,TKKI,≤ 0.2
18,ASAP,≤ 0.2
19,VWRI,≤ 0.2
20,VAFV,≤ 0.2
21,TWPP,≤ 0.2
22,PGMT,≤ 0.2
23,GISM,≤ 0.2
24,WSWC,≤ 0.2

row,Variant,one-hybrid fitness for binding NBS DNA
1,RYVR,0.269
2,QCKK,0.485
3,HPAG,≤ 0.2
4,VCCG,≤ 0.2
5,PTGV,≤ 0.2
6,HSHL,≤ 0.2
7,CVRY,≤ 0.2
8,RWSN,≤ 0.2
9,PIGL,≤ 0.2
10,ECLT,≤ 0.2
11,LTIY,≤ 0.2
12,HFLS,≤ 0.2
13,SCTG,≤ 0.2
14,EPSP,≤ 0.2
15,NRKK,≤ 0.2
16,KMRT,0.274
17,NQLC,≤ 0.2
18,PYVA,≤ 0.2
19,VCEG,≤ 0.2
20,RSRQ,≤ 0.2
21,IDAS,≤ 0.2
22,WHRH,≤ 0.2
23,YGPC,≤ 0.2
24,TSLH,≤ 0.2

row,Variant,one-hybrid fitness for binding NBS DNA
1,GANG,≤ 0.2
2,LETS,≤ 0.2
3,RQIS,≤ 0.2
4,LGAV,≤ 0.2
5,NIFG,≤ 0.2
6,PQDL,≤ 0.2
7,PQFA,≤ 0.2
8,ETNS,≤ 0.2
9,WQSF,≤ 0.2
10,IRTV,≤ 0.2
11,VKPH,≤ 0.2
12,EDPN,≤ 0.2
13,KRAN,≤ 0.2
14,RCCE,≤ 0.2
15,MHTW,≤ 0.2
16,REKT,≤ 0.2
17,GTYV,≤ 0.2
18,RLKW,≤ 0.2
19,GNGR,≤ 0.2
20,QYHR,0.541
21,LMPR,≤ 0.2
22,MRCI,≤ 0.2
23,KFSG,≤ 0.2
24,SSHW,≤ 0.2

row,Variant,one-hybrid fitness for binding NBS DNA
1,LHTW,≤ 0.2
2,EKRT,≤ 0.2
3,RGMY,≤ 0.2
4,AEIL,≤ 0.2
5,AFLT,≤ 0.2
6,EVHV,≤ 0.2
7,KNES,≤ 0.2
8,GYWM,≤ 0.2
9,HKYS,≤ 0.2
10,WPEH,≤ 0.2
11,SNSA,≤ 0.2
12,TFHS,≤ 0.2
13,VLWR,≤ 0.2
14,AVDD,≤ 0.2
15,PGRY,≤ 0.2
16,RRVG,0.298
17,SHTV,≤ 0.2
18,QHTY,≤ 0.2
19,KSSK,≤ 0.2
20,GARY,≤ 0.2
21,RLKG,≤ 0.2
22,TWDT,≤ 0.2
23,TNMT,≤ 0.2
24,RQVW,≤ 0.2

row,Variant,one-hybrid fitness for binding NBS DNA
1,TQTI,≤ 0.2
2,NSWL,≤ 0.2
3,RVIS,0.206
4,ICHR,≤ 0.2
5,YPKC,≤ 0.2
6,QDYR,≤ 0.2
7,MGHA,≤ 0.2
8,NQGT,≤ 0.2
9,QILN,≤ 0.2
10,SQHR,≤ 0.2
11,CEPM,≤ 0.2
12,RHCT,0.281
13,VRNN,≤ 0.2
14,LYTR,≤ 0.2
15,LDTA,≤ 0.2
16,NDRS,≤ 0.2
17,AHFV,≤ 0.2
18,PTNY,≤ 0.2
19,GEWK,≤ 0.2
20,QHVQ,0.283
21,PGAG,≤ 0.2
22,YAWS,≤ 0.2
23,GWGC,≤ 0.2
24,PYWV,≤ 0.2

row,Variant,one-hybrid fitness for binding NBS DNA
1,PRQN,≤ 0.2
2,APSN,≤ 0.2
3,TSWD,≤ 0.2
4,WMTG,≤ 0.2
5,MMNS,≤ 0.2
6,NIML,≤ 0.2
7,AHGA,≤ 0.2
8,LMAC,≤ 0.2
9,DVIL,≤ 0.2
10,QQYL,≤ 0.2
11,INHH,≤ 0.2
12,CGWS,≤ 0.2
13,NEVC,≤ 0.2
14,TEGM,≤ 0.2
15,RKRS,0.666
16,RMRW,≤ 0.2
17,PFKI,≤ 0.2
18,QHMG,≤ 0.2
19,SQCW,≤ 0.2
20,AQVG,≤ 0.2
21,RYAE,≤ 0.2
22,VLNP,≤ 0.2
23,HQVT,≤ 0.2
24,APAH,≤ 0.2

row,Variant,one-hybrid fitness for binding NBS DNA
1,RQGQ,≤ 0.2
2,WGDA,≤ 0.2
3,VNNL,≤ 0.2
4,RHTD,≤ 0.2
5,PVYM,≤ 0.2
6,RLER,≤ 0.2
7,MATC,≤ 0.2
8,DVDV,≤ 0.2
9,HLSV,≤ 0.2
10,PLSM,≤ 0.2
11,QVPN,≤ 0.2
12,SAGL,≤ 0.2
13,TSRS,≤ 0.2
14,LVLI,≤ 0.2
15,TDWS,≤ 0.2
16,QVTY,≤ 0.2
17,FHYR,≤ 0.2
18,NSSC,≤ 0.2
19,FLNS,≤ 0.2
20,HMSF,≤ 0.2
21,TGVM,≤ 0.2
22,TLCS,≤ 0.2
23,WYCG,≤ 0.2
24,KVCG,≤ 0.2

row,Variant,one-hybrid fitness for binding NBS DNA
1,RYKT,0.604
2,SNIF,≤ 0.2
3,ATIR,≤ 0.2
4,GTLF,≤ 0.2
5,RGFW,≤ 0.2
6,QVAK,≤ 0.2
7,CLLY,≤ 0.2
8,RFLF,≤ 0.2
9,TQFL,≤ 0.2
10,KSAA,≤ 0.2
11,YERA,≤ 0.2
12,HFRG,≤ 0.2
13,SAHL,≤ 0.2
14,HYWL,≤ 0.2
15,YIHT,≤ 0.2
16,GTTI,≤ 0.2
17,QKKH,0.619
18,YLLI,≤ 0.2
19,VNVD,≤ 0.2
20,PCCF,≤ 0.2
21,IMYV,≤ 0.2
22,HGPK,≤ 0.2
23,PSNV,≤ 0.2
24,QAAV,≤ 0.2

row,Variant,one-hybrid fitness for binding NBS DNA
1,QEQC,≤ 0.2
2,WSQD,≤ 0.2
3,QRMQ,0.385
4,VNNH,≤ 0.2
5,EHMC,≤ 0.2
6,EFHT,≤ 0.2
7,AFAC,≤ 0.2
8,SPMM,≤ 0.2
9,CGYT,≤ 0.2
10,GAAS,≤ 0.2
11,NMPR,≤ 0.2
12,RPGI,≤ 0.2
13,STAC,≤ 0.2
14,NHTN,≤ 0.2
15,PGVN,≤ 0.2
16,CVLH,≤ 0.2
17,LTIM,≤ 0.2
18,YDDL,≤ 0.2
